# Test results from PubChem BioAssay AID1460 (National Center for Advancing Translational Sciences (NCATS), 2008).
# Hit rate of the full screen: of about 270,000 compounds, about 5,800 (2.1%) were called active. The inconclusive results got no clear call from the source; some entries with a clear call stand among them for comparison. Calls follow the shape of the dose curve; as a rule, active = well fitted inhibition curve with a large enough effect; inconclusive = small, poorly fitted or top-dose-only effect; inactive = flat fitted curve, though single readings scatter. Potencies beside an inconclusive call are fits to weak or partial responses and may not hold up.
# Target: Microtubule-associated protein tau (Homo sapiens) (UniProt P10636)
# Test: qHTS for Inhibitors of Tau Fibril Formation, Thioflavin T Binding; also: nearly all actives have a fitted effect of over 55% in size
# Conditions: recombinant tau K18 P301L, heparin-induced fibrillization, ThT fluorescence; series mostly up to 57.4 µM
# In short: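 Using a mix of unlabeled (15 uM) and Alexa 594-labeled (0.24 uM) tau K18 P301L, heparin-triggered fibrillization over 6 hr at 37 C was scored by ThT fluorescence.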
# Potency is read from the fitted curve at half-maximal effect; tags tell the direction and shape of the fitted curve.
# Sequence of UniProt P10636 (P10636 whole entry, looked up): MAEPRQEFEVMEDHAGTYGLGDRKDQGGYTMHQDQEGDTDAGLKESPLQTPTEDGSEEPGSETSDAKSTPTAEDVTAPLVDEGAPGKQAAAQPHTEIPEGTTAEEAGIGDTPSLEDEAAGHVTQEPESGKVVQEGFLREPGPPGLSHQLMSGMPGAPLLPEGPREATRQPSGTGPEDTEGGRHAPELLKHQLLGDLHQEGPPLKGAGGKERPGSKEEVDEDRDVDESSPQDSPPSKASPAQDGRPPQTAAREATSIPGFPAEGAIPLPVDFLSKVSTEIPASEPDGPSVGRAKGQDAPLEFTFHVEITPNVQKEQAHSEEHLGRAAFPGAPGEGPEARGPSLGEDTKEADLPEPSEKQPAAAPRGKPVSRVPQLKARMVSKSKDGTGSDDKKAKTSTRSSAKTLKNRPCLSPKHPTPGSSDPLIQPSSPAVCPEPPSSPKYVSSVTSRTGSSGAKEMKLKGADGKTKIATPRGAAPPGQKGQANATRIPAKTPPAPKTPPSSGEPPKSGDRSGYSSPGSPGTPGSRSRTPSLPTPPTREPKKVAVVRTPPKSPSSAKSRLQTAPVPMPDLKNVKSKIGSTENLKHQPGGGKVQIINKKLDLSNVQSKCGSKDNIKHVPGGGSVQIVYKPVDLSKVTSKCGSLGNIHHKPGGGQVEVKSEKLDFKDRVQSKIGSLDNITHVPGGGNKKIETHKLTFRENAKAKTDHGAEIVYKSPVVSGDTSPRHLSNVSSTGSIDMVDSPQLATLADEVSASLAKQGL
row,SMILES,Potency
1,Nc1ccc(N2CCCCCC2)cc1,active: 7.08 µM
2,CCN(CC)c1cc(C)c2cc(NC(=O)/C=C/c3cc(OC)c(OC)c(OC)c3)ccc2n1,active: 4.47 µM
3,CC(C)c1nnc(N2C(=O)c3oc4ccccc4c(=O)c3C2c2ccccc2F)s1 (centres undefined),inactive
4,CC1(C)C(=O)Nc2ccccc2N1C(=O)COC(=O)C1CCCCC1,"inconclusive: 44.7 µM [inhibitor, single point]"
5,COc1cc(C)nc(Nc2nc(C)c(C(C)=O)s2)n1,"inconclusive: 28.2 µM [inhibitor, single point]"
6,COc1cccc(-c2nn(-c3ccccc3)cc2C(=O)Nc2nccs2)c1,inactive
7,CCOC(=O)CN1C(=O)S/C(=C/c2ccc(O)c([N+](=O)[O-])c2)C1=O,"inconclusive: 39.8 µM [inhibitor, single point]"
8,Fc1ccc(-c2csc(NC3=NCCC3)n2)cc1,inactive
9,CC(=O)c1ccc(NC(=O)/C(Cl)=C/c2ccccc2)cc1,inactive
10,O=C1C2C3C=CC(C3)C2C(=O)N1CCCCCCN1C(=O)C2C3C=CC(C3)C2C1=O (centres undefined),inactive
11,CCOC(=O)c1c(C)n(-c2ccc(OC)cc2)c2ccc(OC(=O)COc3ccccc3)cc12,inactive
12,Cn1cc(C(=O)N/N=C/c2cccs2)c2ccccc21,"inconclusive: 0.562 µM [inhibitor, full curve]"
13,Cc1ccc2[nH]c(O)c(N=NC(N)=S)c2c1,"inconclusive: 15.8 µM [inhibitor, partial curve]"
14,O=C(c1ccc(F)cc1)N1CCCCC(S(=O)(=O)c2ccccc2)C1=O (centres undefined),inactive
15,CN(Cc1ccccc1)C(=O)c1ccc(CSc2nc3cccnc3n2Cc2ccccc2F)cc1,"inconclusive: 8.91 µM [inhibitor, partial curve]"
16,CC(Oc1ccc2oc3ccccc3c2c1)C(=O)NC12CC3CC(CC(C3)C1)C2 (centres undefined),"inconclusive: 17.8 µM [inhibitor, single point]"
17,Cc1ccc(C2C=C(c3ccccc3)Nc3nc(NS(=O)(=O)c4ccccc4)nn32)cc1 (centres undefined),"inconclusive: 15.8 µM [inhibitor, partial curve]"
18,COc1cccc(/C=C/c2nc(C#N)c(N3CCC(C(N)=O)CC3)o2)c1,"inconclusive: 12.6 µM [inhibitor, partial curve]"
19,CC(C)N(C(=O)CSc1cn(CC(=O)N2CCCCCC2)c2ccccc12)C(C)C,inactive
20,COc1ccc(CN(C)C(=O)CCl)cc1,inactive
21,CC(=O)Nc1ccc(Nc2cc(C)nc3c(-c4ccccc4)cnn23)cc1,"inconclusive: 14.1 µM [inhibitor, partial curve]"
22,N=C1SC(c2ccccc2)C(=O)N1c1ncc(Cc2ccccc2Cl)s1 (centres undefined),"inconclusive: 39.8 µM [inhibitor, partial curve, poor fit]"

row,SMILES,Potency
1,CCC(=O)c1ccc(/C=C/c2nc3ccccc3n2C)o1,"inconclusive: 6.31 µM [inhibitor, partial curve]"
2,N#CC(C(=O)OC1CCCCC1)c1nc2ccccc2nc1N1CCOCC1 (centres undefined),inactive
3,O=C(Cn1ncc2c3ccccc3n(Cc3ccccc3F)c2c1=O)NCc1ccccc1Cl,inactive
4,c1ccc(-c2ccc(C3=Nn4c(Cn5nnc6ccccc65)nnc4SC3)cc2)cc1,"inconclusive: 35.5 µM [inhibitor, single point]"
5,CCc1cccc(-n2nnc(-c3nsc(NC(=O)c4cccc(OC)c4)n3)c2C)c1,inactive
6,COc1ccc(NC2=CC(c3ccc(OC)c(OC)c3)N(c3ccc(OC)cc3)C2=O)cc1 (centres undefined),inactive
7,COc1ccc(Cl)cc1NC(=S)N1CCN(c2ccccn2)CC1,"inconclusive: 11.2 µM [inhibitor, partial curve]"
8,CCOc1ccc(NC(=O)Cn2cnc3sc(C)c(S(=O)(=O)N4CCN(c5ccccc5OC)CC4)c3c2=O)cc1,"inconclusive: 39.8 µM [inhibitor, single point]"
9,COc1ccc(NC(=O)c2ccco2)cc1NC(=O)C(C)(C)Oc1ccc(Cl)cc1,"inconclusive: 8.91 µM [inhibitor, full curve]"
10,COc1ccc(NC2=C3CCCC=C3N(c3ccc(OC)cc3)C2=O)cc1,"inconclusive: 15.8 µM [inhibitor, partial curve]"
11,CCOc1cc(C2NC(=O)c3c(sc4c3CCN(C)C4)N2)ccc1OC(=O)c1ccc(Br)cc1 (centres undefined),"inconclusive: 25.1 µM [inhibitor, partial curve]"
12,CC(=O)c1ccc(N2CCN(C(=O)CCN3C(=S)NC(C)(C)CC3C)CC2)cc1 (centres undefined),"inconclusive: 31.6 µM [inhibitor, single point]"
13,CN(C)C(=O)N1CCCC(C(=O)NCCc2ccccc2)C1 (centres undefined),inactive
14,CCOc1ccc(CNC(=O)C2CCCN(c3nnc(C)c4c(C)n(-c5ccccc5)nc34)C2)cc1 (centres undefined),"inconclusive: 15.8 µM [inhibitor, single point]"
15,CCCCN(CCCC)S(=O)(=O)c1ccc2oc(C(=O)N3CCOCC3)c(C)c2c1,"inconclusive: 28.2 µM [inhibitor, single point]"
16,CCOC(=O)c1sc2nc(C)nc(SCC(=O)NC3CCS(=O)(=O)C3)c2c1C (centres undefined),"inconclusive: 20 µM [inhibitor, partial curve, poor fit]"
17,CC(/C=N/n1c(C2CCCCC2)n[nH]c1=S)=C\c1ccccc1,"inconclusive: 25.1 µM [inhibitor, single point]"
18,Cc1c(/C=C/C(=O)c2ccccc2O)cnn1C,"inconclusive: 22.4 µM [inhibitor, single point]"
19,CCC(=O)O[C@]1(C(=O)CCl)[C@@H](C)C[C@H]2[C@@H]3CCC4=CC(=O)C=C[C@]4(C)[C@@]3(F)[C@@H](O)C[C@@]21C,"inconclusive: 20 µM [inhibitor, partial curve]"
20,CNc1ccc(Br)cc(C(=O)/C=C/c2cccc(OC)c2)c1=O,active: 11.2 µM
21,COc1ccc(-c2noc(-c3ccc(N4CCCC4)c([N+](=O)[O-])c3)n2)cc1OC,"inconclusive: 25.1 µM [activator, partial curve, poor fit]"
22,COc1cccc(/C=N/NC(=O)Cn2ccnc2C)c1,inactive
